# Measurements published in the supplement of paper PMC11417369.
# ± gives the standard deviation of the averaged measurements. The list shows a part of the results.
# System: PfAP2-LT AP2 domain (GST-tagged)
# Assay: gcPBM binding intensity (ln(normalized median fluorescence intensity)); higher = stronger DNA binding
# In short: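 The binding buffer was 1× PBS containing 1% milk, 0.2 mg/ml BSA, 0.5% salmon testes DNA and 0.03% Triton X-100. In it, GST-tagged P. falciparum DNA-binding domains expressed in E. coli were applied for 1 h to an Agilent 4 × 180k array of primer-extended double-stranded 36-bp intergenic genomic probes plus negative controls. Binding intensity, read with Alexa488 anti-GST antibody and a 488 nm scan, is the highest Masliner-normalised natural-log median intensity across replicate spots of either probe orientation.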
row,Sequence,gcPBM binding intensity (ln)
1,AAAAAGAAAAAACTTACACACATATATACACCCATG [CACACA_site8079],9.41 ± 0.18
2,AATAGAATAATCCTTACACACACACCCACACGAATA [CACACA_site8053],9.87 ± 0.16
3,AACCAATATGCGTATACACACATAAATATAAATATA [CACACA_site3780],9.29 ± 0.4
4,TGTATAAAAAGAAAAAATCGTATGTGTTATCAAAAA [GTGCAC_negctrl_site490],8.46 ± 0.47
5,GTATTAATTTTAAGGTGTACGCAAAAAATTTAATTT [XGTACX_site718],8.63 ± 0.4
6,AACCAGTTGATGTGTACACATATAGTAATAATTTTA [CACACA_site5564],9.16 ± 0.52
7,TTTTTTTTTTTTTGAACACACATTATTAATTTTTAT [CACACA_site308],8.71 ± 0.52
8,ATATATTTTTTTTATACATGCAATGCATTTACGTTG [TGCATGCA_site565],9.02 ± 0.47
9,TTTTTTATATATTAGGAATTTATAAAATTAGAAGGT [GTGCAC_negctrl_site617],8.5 ± 0.33
10,ATATATATATATATATGTACATAATATATTATATAT [XGTACX_site924],9.26 ± 0.14
11,TTATTATATACAAAATGTACACAGAATAATTTGAAT [XGTACX_site2314],8.7 ± 0.41
12,TTTTTTTTTTTTTTGGTGCAGTTCACATATTATATA [GTGCAC_site9996],8.59 ± 0.42
13,TTTTGAATATATTAAATAAATTAAAAATCTACAAAC [GTGCAC_negctrl_site622],8.28 ± 0.35
14,AGATCATAATATTATACACACATTATATATCTGTAA [CACACA_site4925],9.14 ± 0.26
15,AAAAAAAAAAAAAAAAAAAAAAAAAAAAATAAAAAA [CACACA_negctrl_site59],8.44 ± 0.17
16,AAAATATTTAATAGAAGTACACATGTATATATACAT [XGTACX_site8942],8.84 ± 0.41
17,TATATTAACAAAATGGTGCAATAATTTCTATATTGT [GTGCAC_site9430],8.54 ± 0.38
18,TGTGTAAGCACATACAAACACACAACCTTATTTTTA [CACACA_site2187],8.97 ± 0.34
19,TTATTATATTAAAAGAGGACACATTTATTTTTTTTT [XGTACX_site1241],8.3 ± 0.47
20,ATATATATATATATTTGTACTTAATTGATTTTACTT [XGTACX_site2663],9.42 ± 0.4
21,ATGCGTTTAGCAAAAAGTACATATATATATAATATT [XGTACX_site1928],8.9 ± 0.43
22,ATTATTGATTTATAAACACACACTCGAAGATGTTTA [CACACA_site8294],8.88 ± 0.4

row,Sequence,gcPBM binding intensity (ln)
1,ATTTTTTCTAGACATGCATGTGAAATTTACTTTTTT [TGCATGCA_site305],8.84 ± 0.39
2,TTGAAATACTTTATTTGTACATATAGCAAAGTGTAT [XGTACX_site8782],8.57 ± 0.38
3,CTTTCTCTCAAAATGACATGCAATTTGTTTCTTTTT [TGCATGCA_site169],8.71 ± 0.67
4,AAAAAAATATATAATAGTACATATATAGGAATATAT [XGTACX_site4591],8.87 ± 0.52
5,TGAATACAGATATTCACACAAATAGTTTTGATATAT [CACACA_site5527],8.66 ± 0.45
6,TAATATCTTGAGTCATCACACATTGATTAATGAATC [CACACA_site5735],8.62 ± 0.42
7,CTTTTTTTTTTTTTTGCACACACATATATAAATATA [CACACA_site3950],9.38 ± 0.34
8,AGTGGAAATTTTATTTGTACATAAATATTTACATAC [XGTACX_site633],8.64 ± 0.34
9,TTTTTTTTTTTTTTTACACACTTTATTCAAACAACT [CACACA_site4104],8.72 ± 0.47
10,ATTTTTTTTTAATGCAATATATTTTGAAAATTTTAT [CACACA_negctrl_site753],8.38 ± 0.49
11,ATTGATACATCCAATACACACTACATATTATGATGT [CACACA_site6965],9.11 ± 0.47
12,TTGGCATACAGACACACACACACACCCCCACATATA [CACACA_site590],10.09 ± 0.085
13,AATTTATTAAAAAAATGTACTTATTTTTTTGTATAA [XGTACX_site5844],8.34 ± 0.49
14,TTTTTTTTTTTTTTTTTTTTTTTTTCATATTAATAT [GTGCAC_negctrl_site351],8.36 ± 0.39
15,AATATGGAATGAAATAACAATCGGGAGTATATTACC [CACACA_negctrl_site93],8.91 ± 0.49
16,TATATATATGTTCTTACACACACGAATATATATATG [CACACA_site3304],9.23 ± 0.28
17,ACATATTGTAGATATTGTACATATTGTGTATATATT [XGTACX_site7620],8.98 ± 0.45
18,TTGAATAAATTGGAATAAATATAATAAAATAAGGAA [XGTACX_negctrl_site302],8.67 ± 0.47
19,TACCAATAAATGAAGGTGCGTGCTTGCCTTTGCTAT,8.95 ± 0.31
20,CATACATATATTATTGCACACATATAAAATACCCCC [CACACA_site9292],9.7 ± 0.15
21,TAGGAATTTAATAAATGTACATATACATAATATATA [XGTACX_site3672],8.61 ± 0.49
22,TTGTATAGTCTGATATGTACATATATATATATATAA [XGTACX_site4307],9 ± 0.35

row,Sequence,gcPBM binding intensity (ln)
1,TATAAAAAATTAAAATTTTTCTTATTTTTTTTAGAT [TGCATGCA_negctrl_site125],7.98 ± 0.49
2,ACCACCAGGAACAAAGCACATTAGGAAAAATAAAAC [XGTACX_negctrl_site228],8.95 ± 0.48
3,TGGATACACAAAAATTAAAAAAATAAACAAACAAAT [GTGCAC_negctrl_site105],8.92 ± 0.49
4,TACTTTTATATGAATACACACAGGAATATAAATATG [CACACA_site7647],8.78 ± 0.36
5,AAAAAATAGTGGTATGCATGTCCCTTGTATTTTCTT [TGCATGCA_site587],8.96 ± 0.45
6,TCCTTACATTTTAAAACACACAAAAATTAATTGTTA [CACACA_site2313],8.47 ± 0.4
7,AAAATACCCATTTTAGTACACACTTAAAAAATTATT [CACACA_site8966],8.77 ± 0.41
8,AGACCTATGATATATACACACATATATTTATTTATA [CACACA_site6630],8.99 ± 0.45
9,ATTATAACACTTATTTCATTTGTATGCCCTTTAAAA [CACACA_negctrl_site955],8.66 ± 0.52
10,TATATAACTAAAATAACACACATATATAAAAATATA [CACACA_site7416],8.84 ± 0.42
11,TATAAATATTTTATTGTACACACTTTTTATGAATGA [CACACA_site3136],8.76 ± 0.47
12,TAATATTTCATTAGGTGTACACTACATAGTAGTAGA [XGTACX_site366],8.55 ± 0.35
13,GTTTGTTTGTTTGTTCGTACATATATAAAATAAAAA [XGTACX_site4731],8.45 ± 0.35
14,TTTTTTAAAATATGGACACACATATATATATCTGTA [CACACA_site5535],8.88 ± 0.38
15,TATGCAATATATTATATTCTGTAAATATTATATATT [TGCATGCA_negctrl_site67],8.41 ± 0.38
16,ATAATCAACATTAGGTGTACAAAATATGTATGTTTT [XGTACX_site6696],8.95 ± 0.47
17,TATATATTTTTTAATTGTACACTTCAAAAACAAAAA [XGTACX_site5595],8.18 ± 0.42
18,GTAGTTATATTAAGGGTGCTTAATTAGATTAAACAA,8.53 ± 0.47
19,TTCAAATTTCCACATACACACCTTGTAGATATATAT [CACACA_site7984],8.95 ± 0.49
20,AGAATAAATAAATATTGTACATATAAAATATATATA [XGTACX_site896],8.71 ± 0.48
21,ATTGAACACATCTATGCATGCACGGAAAAAAGTACA [TGCATGCA_site401],9.24 ± 0.35
22,AAAAACTTAATATTGACACACATTTTTAAGAATAAT [CACACA_site4291],8.67 ± 0.41

row,Sequence,gcPBM binding intensity (ln)
1,AATGTCAGTATGCGAGGTACACGTATAAAAATTACA [XGTACX_site4109],8.95 ± 0.56
2,TATTATAATAAACCTATACACACATAAATAAATAAA [GTGCAC_negctrl_site627],8.92 ± 0.44
3,AGGAAATTTGTTATTGCACACAAATTTTTCTTTTTT [CACACA_site8732],8.85 ± 0.38
4,TTTTACTAAATATATACACACATTATACAGATATAT [CACACA_site5765],8.94 ± 0.44
5,TACATAAATTAAAACACACACACACTAGAAAAAAAA [CACACA_site5278],9.955 ± 0.064
6,AAAAATAAAATATATACACACATATATATATATATA [CACACA_site2943],9.765 ± 0.035
7,TTTTAAATTGGAGTGGGCAGATTGATATTATTCTTC [GTGCAC_negctrl_site191],8.95 ± 0.092
8,ACATATATATATATGTGTACATATTTATACAACAAT [XGTACX_site6660],9.12 ± 0.41
9,TTTTTAATTTTGTGGGTGCTTTCGTGTTATTATATA,9.04 ± 0.39
10,TGTCACATAATTTATGCACACAATGATTATGCTTAA [CACACA_site2358],9.01 ± 0.31
11,AAGTATAAATTAAAATGTACTTATAAAAAAAAAGAA [XGTACX_site7028],8.7 ± 0.54
12,TATGTATGTATGTATGCATGTGTAACACCTAAATAT [TGCATGCA_site361],8.99 ± 0.28
13,ACATATATTGTACATACACACCTATATAAATATCCT [CACACA_site7503],9.07 ± 0.36
14,CCATATTTCATTAATGAACACACAAAGAGGTATATA [CACACA_site8431],8.89 ± 0.52
15,TATATATATATACCAACACACATACATATATATATA [CACACA_site8530],9.38 ± 0.14
16,TAAAAAATAAAAATTGCACACTAAAAAATTACGCAC [CACACA_site9129],8.76 ± 0.41
17,GAATAAAAAATTGGCACACATAAATATATGGATATA [CACACA_site3047],8.97 ± 0.47
18,TTCAACATATTAAAAAGTACAGAATATAACATTATA [XGTACX_site1361],8.59 ± 0.47
19,AATAAATTTAGACACACACACACATATAAATAAATA [CACACA_site6531],10.1 ± 0.23
20,TATACGTGAATGACAGTGCATTTCAAAAGTATAAAA [GTGCAC_site9887],8.89 ± 0.52
21,TGTGTAATATTCTGTTGTACATAACTCATAAATAAA [XGTACX_site5308],8.46 ± 0.36
22,TATATATCCTCTGAATGTACTTGTTTAATAATGTAG [XGTACX_site4332],8.55 ± 0.47
